In PubChem BioAssay AID504333 (National Center for Advancing Translational Sciences (NCATS), 2011):
The whole screen tested about 360,000 compounds, of which about 16,000 (4.4%) were called active. This list was built around the results that the source calls inconclusive (neither active nor inactive); the mix of calls is not that of the screen. The call rests on the fitted dose curve; in most records, active means well fitted inhibition curve with a large enough effect; inconclusive means small, poorly fitted or top-dose-only effect; inactive means no such curve, though single readings can be large or run the other way. Where the call is inconclusive, the potency comes from a doubtful curve fit.

molecular target: Bromodomain adjacent to zinc finger domain protein 2B (Homo sapiens) (UniProt Q9UIF8); assay: qHTS Assay for Inhibitors of BAZ2B; settings: AlphaScreen BAZ2B-H3K14Ac peptide displacement; series mostly up to 114 µM; further: nearly all actives have a fitted effect of over 60% in size
Chain of UniProt Q9UIF8 (Q9UIF8 whole entry, looked up, the tested form may be a part): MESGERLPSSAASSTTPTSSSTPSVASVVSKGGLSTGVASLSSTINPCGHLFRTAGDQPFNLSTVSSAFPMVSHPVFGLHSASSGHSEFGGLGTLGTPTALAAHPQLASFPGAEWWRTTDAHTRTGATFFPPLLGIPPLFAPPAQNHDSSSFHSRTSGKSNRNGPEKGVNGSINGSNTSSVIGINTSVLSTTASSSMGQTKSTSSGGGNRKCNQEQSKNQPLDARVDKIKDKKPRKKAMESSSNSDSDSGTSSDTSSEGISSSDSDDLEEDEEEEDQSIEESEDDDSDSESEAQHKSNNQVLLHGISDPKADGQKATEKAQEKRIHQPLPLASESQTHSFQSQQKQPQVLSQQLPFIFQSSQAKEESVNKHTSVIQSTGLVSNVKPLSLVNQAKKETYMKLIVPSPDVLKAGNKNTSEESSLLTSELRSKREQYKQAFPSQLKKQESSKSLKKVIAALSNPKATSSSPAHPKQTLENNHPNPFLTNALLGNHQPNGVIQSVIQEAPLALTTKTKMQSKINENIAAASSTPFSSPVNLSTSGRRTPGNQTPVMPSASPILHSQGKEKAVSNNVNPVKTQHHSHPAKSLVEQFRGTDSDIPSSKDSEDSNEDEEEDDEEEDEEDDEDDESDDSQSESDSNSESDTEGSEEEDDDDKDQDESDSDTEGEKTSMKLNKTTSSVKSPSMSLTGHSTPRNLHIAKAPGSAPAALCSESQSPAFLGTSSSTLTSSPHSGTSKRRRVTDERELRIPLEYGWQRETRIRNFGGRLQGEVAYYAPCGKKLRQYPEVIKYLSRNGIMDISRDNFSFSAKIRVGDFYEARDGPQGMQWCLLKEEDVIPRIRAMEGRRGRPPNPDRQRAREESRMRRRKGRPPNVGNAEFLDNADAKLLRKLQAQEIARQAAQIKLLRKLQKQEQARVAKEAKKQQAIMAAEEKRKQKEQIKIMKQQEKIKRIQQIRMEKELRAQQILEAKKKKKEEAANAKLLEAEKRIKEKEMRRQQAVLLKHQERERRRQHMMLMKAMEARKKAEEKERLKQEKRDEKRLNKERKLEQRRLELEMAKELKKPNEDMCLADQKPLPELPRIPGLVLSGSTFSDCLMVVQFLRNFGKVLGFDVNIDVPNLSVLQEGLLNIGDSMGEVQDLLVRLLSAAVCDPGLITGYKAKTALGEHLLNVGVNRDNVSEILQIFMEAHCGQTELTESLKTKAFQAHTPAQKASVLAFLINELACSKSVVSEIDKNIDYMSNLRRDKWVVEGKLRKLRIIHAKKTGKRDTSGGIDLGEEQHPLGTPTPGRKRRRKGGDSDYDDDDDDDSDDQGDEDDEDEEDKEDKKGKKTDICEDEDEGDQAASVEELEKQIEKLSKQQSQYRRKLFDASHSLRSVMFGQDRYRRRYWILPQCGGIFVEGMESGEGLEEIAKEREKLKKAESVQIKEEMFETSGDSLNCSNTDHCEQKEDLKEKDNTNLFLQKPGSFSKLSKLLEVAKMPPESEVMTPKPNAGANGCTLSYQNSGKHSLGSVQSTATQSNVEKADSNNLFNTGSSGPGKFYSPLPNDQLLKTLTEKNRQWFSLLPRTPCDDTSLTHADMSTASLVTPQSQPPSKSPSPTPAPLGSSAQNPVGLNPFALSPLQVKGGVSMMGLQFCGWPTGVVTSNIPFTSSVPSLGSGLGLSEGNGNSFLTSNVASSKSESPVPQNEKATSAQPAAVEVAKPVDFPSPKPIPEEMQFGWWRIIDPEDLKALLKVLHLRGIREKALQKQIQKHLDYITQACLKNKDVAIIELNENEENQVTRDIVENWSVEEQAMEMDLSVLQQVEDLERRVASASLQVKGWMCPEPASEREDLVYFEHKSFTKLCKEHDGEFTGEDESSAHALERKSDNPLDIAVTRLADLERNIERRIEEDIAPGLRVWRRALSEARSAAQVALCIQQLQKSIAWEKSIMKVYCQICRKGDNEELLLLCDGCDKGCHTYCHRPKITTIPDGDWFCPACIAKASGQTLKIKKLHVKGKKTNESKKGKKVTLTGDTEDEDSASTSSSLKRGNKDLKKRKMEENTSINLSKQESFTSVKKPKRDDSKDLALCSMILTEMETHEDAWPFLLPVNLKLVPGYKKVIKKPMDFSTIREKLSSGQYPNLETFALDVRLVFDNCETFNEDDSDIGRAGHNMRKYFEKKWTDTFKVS
How it was run: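 Compounds, titrated to a top concentration of 110 uM, were incubated 30 min at room temperature with preformed BAZ2B/acetyl-K14 H3 peptide complex (50 nM each). Proximity signal was measured by AlphaScreen after 20 min with beads.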
Potency means the concentration at half of the fitted maximal effect; tags describe the fitted curve by direction and shape.

Structure (SMILES)	Potency
CNc1cccccc1=S	active: 10 µM
CC1=C(C(=O)OCc2ccc(C)cc2)C(c2cccc(F)c2F)CC(=O)N1 (configuration not stated)	inactive
Cc1ccc2c(c1)c1c3n2CCN(C(=O)c2ccc(C(F)(F)F)cc2)C3CCC1 (configuration not stated)	active: 28.2 µM
Nc1ccc(C(=O)c2ccccc2C(=O)O)cc1Cl	inconclusive: 89.1 µM [inhibitor, single point]
CC(=O)N1CCN(Cc2nc3cc(NC(=O)c4ccc(Cl)cc4)ccc3n2C)CC1	inconclusive: 44.7 µM [inhibitor, partial curve]
CN1CCN(C(CNS(=O)(=O)c2ccc(Br)cc2)c2ccc3c(c2)OCO3)CC1 (configuration not stated)	inactive
CCOC(=O)C1=C[C@]2(CC)CCCN3CCc4c(n1c1ccccc41)[C@@H]32	inconclusive: 56.2 µM [inhibitor, partial curve]
c1ccc(CNc2nc3ccccc3n2CCN2CCOCC2)nc1	active: 70.8 µM
CC(C)=Cc1c(O)nc2ccccn2c1=O	inactive
Cc1ccc(CN(C)C(=O)c2cccc(S(=O)(=O)N3CCc4ccccc4C3)c2)o1	inconclusive: 89.1 µM [inhibitor, single point]
COc1ccc(CC(=O)N2CCOCC2)cc1OC	inactive
OCCC1CN(C/C=C/c2ccco2)CCN1Cc1ccccc1 (configuration not stated)	inconclusive: 89.1 µM [inhibitor, single point]
O=C(C[n+]1cc(Br)cc2ccccc21)c1ccccc1	inconclusive: 35.5 µM [inhibitor, partial curve, poor fit]
O=[N+]([O-])c1ccc(/C([O-])=C(/C(=S)NCc2ccco2)[n+]2ccccc2)cc1	inconclusive: 79.4 µM [inhibitor, single point]
Cc1ccc(C(=O)OCC(=O)NCc2ccco2)cc1	inconclusive: 89.1 µM [inhibitor, single point]
C[C@H](NS(=O)(=O)c1ccc(Cl)c(Cl)c1)C(=O)OCc1cc(=O)n2cc(Br)ccc2n1	inconclusive: 79.4 µM [inhibitor, single point]
CCOc1c(O)ccc(/C=C2\SC(=S)NC2=O)c1[N+](=O)[O-]	active: 39.8 µM
COc1ccc(NC(=O)c2cc([N+](=O)[O-])ccc2N2CCCCC2)cc1	inconclusive: 31.6 µM [inhibitor, full curve, poor fit]
COc1ccc(/C=N/OCC(=O)N(Cc2ccc(OC)cc2)c2ccccc2C(=O)O)cc1	inconclusive: 39.8 µM [inhibitor, single point]
N#C/C(=C\c1ccc(O)c([N+](=O)[O-])c1)c1nc2ccccc2s1	active: 25.1 µM
CN(C)c1ccc(Nc2nc3ccccc3n3nnnc23)cc1	active: 3.55 µM
COc1ccc(-c2c(-c3ccccc3)c(C(=O)C(=O)NCCCN(C)C)n3ccc4cc(OC)c(OC)cc4c23)cc1OC	inconclusive: 39.8 µM [inhibitor, full curve]
CC(C)CCNC(=O)C1CCC(=O)N1CCc1ccccc1 (configuration not stated)	inactive
Cc1c(CN2CCC(CO)(CCOc3ccccc3)CC2)[nH]c2ccc(Cl)cc12	inconclusive: 22.4 µM [inhibitor, full curve]

Structure (SMILES)	Potency
COc1ccc2c(c1)C(C)=CC(C)(C)N2C(=O)Nc1ccccc1	active: 50.1 µM
CCN1CCN(c2cc(C)c3cc(NC(=S)NCCCN4CCc5ccccc5C4)ccc3n2)CC1	inconclusive: 25.1 µM [inhibitor, full curve]
Cc1[nH]n(-c2ncc(-c3ccccc3)s2)c(=O)c1C(c1ccc(Br)cc1)C(C#N)C#N (configuration not stated)	active: 35.5 µM
Cc1cc(N2CCN(C)CC2)nc2ccc(NC(=S)N3CCCCC3)cc12	inconclusive: 56.2 µM [inhibitor, partial curve]
Cc1cc([N+](=O)[O-])c(C)cc1-c1ccc(/C=N/NC(=O)c2cccnc2)o1	inconclusive: 25.1 µM [inhibitor, full curve]
Nc1ccc(N2CCCCC2)c(S(=O)(=O)Nc2ccc(Cl)cc2)c1	inconclusive: 56.2 µM [inhibitor, partial curve]
CCOc1ccc2nc(SCC(=O)NCc3ccco3)sc2c1	inconclusive: 89.1 µM [inhibitor, single point]
CC1=C(C#N)c2nc(N)c(C#N)c(C)c2/C1=C\c1ccc(C)cc1	inconclusive: 79.4 µM [inhibitor, single point]
CCN1C(=O)/C(=C/C2=Cc3ccccc3OC2C)SC1=S (configuration not stated)	inconclusive: 1.58 µM [inhibitor, full curve, poor fit]
N#CC(c1cccc(Cl)c1)c1ccc2c(C(F)(F)F)cc(C(F)(F)F)nc2n1 (configuration not stated)	active: 10 µM
COc1ccc(N2CCN(C(=O)CNS(=O)(=O)c3ccc(Br)s3)CC2)cc1	inconclusive: 70.8 µM [inhibitor, single point]
COCCCN=C1NN=C(c2cc(C)n(Cc3ccco3)c2C)CS1	inconclusive: 44.7 µM [inhibitor, partial curve]
NC(=O)NC1CCCc2c1[nH]c1ccc(Cl)cc21 (configuration not stated)	inconclusive: 89.1 µM [inhibitor, single point]
Cc1ccc(NC(=S)NC(=O)/C=C/c2ccco2)c(O)c1	inconclusive: 22.4 µM [inhibitor, partial curve]
CC1CCN(C(=O)C(C)NCc2ccc(F)cc2)CC1 (configuration not stated)	active: 50.1 µM
c1ccc(N2CCN(c3nc(-c4ccccn4)nc4ccccc34)CC2)cc1	active: 1.78 µM
Cc1cnc(C(=O)Nc2nnc(C(C)C)s2)cn1	active: 50.1 µM
COC(=O)c1cc(S(=O)(=O)NCCN2CCN(c3ccccc3F)CC2)c[nH]1	inactive
Cc1ccc(N(C)C(=O)CN2C(=O)CCc3cc(S(=O)(=O)N4CCOCC4)ccc32)cc1	inconclusive: 79.4 µM [inhibitor, single point]
CC(C)c1ccc(C(=O)Nc2nnc(S(=O)(=O)N3CCOCC3)s2)cc1	inactive
O=C(CSc1ccc(-c2ccccn2)nn1)NC1CCCC1	active: 3.16 µM
O=C(NC1CC(=O)N(c2ccc(F)cc2)C1)c1ccc2c(c1)OCO2 (configuration not stated)	inactive
COc1ccccc1CNC(=O)CCn1cnc2ccccc2c1=O	active: 50.1 µM
CC(=O)Nc1ccc2c(CSc3nnc(-c4cccnc4)n3-c3ccc(C)cc3C)cc(=O)oc2c1	inconclusive: 89.1 µM [inhibitor, single point]

Structure (SMILES)	Potency
CCOc1ccc(S(=O)(=O)N(C)CC(=O)NCc2ccc3c(c2)OCO3)cc1	inactive
O=C1C=CC(=O)N1c1ccc(Sc2ccc([N+](=O)[O-])cc2)cc1	inconclusive: 50.1 µM [inhibitor, partial curve]
CCn1cc(S(=O)(=O)NCc2ccccc2Br)cn1	inactive
O=C(NC(=S)Nc1ccccc1Cl)c1cncc(Br)c1	inactive
COc1ccc2c(c1)N(C)/C(=C/c1cccc[n+]1C)S2	inconclusive: 70.8 µM [inhibitor, single point]
COc1ccc(OCC(=O)OCCNC(=O)c2cccnc2)cc1	inconclusive: 89.1 µM [inhibitor, single point]
O=C1C(=Cc2cccn2-c2ccc(O)cc2)C(=O)c2ccccc21	inconclusive: 89.1 µM [inhibitor, single point]
COc1ccc(NC(=O)CSc2nnc(-c3ccccn3)n2N)cc1Cl	inconclusive: 89.1 µM [inhibitor, single point]
CC(=O)c1ccc(NC(=O)Cn2ncc3c4ccccc4n(Cc4ccccc4)c3c2=O)cc1	inactive
N#CC1=C(N)Oc2cc(N)ccc2C1C1CCCCC1 (configuration not stated)	inconclusive: 89.1 µM [inhibitor, single point]
O=C1Nc2ccc(Br)cc2C12NNc1ccccc1O2 (configuration not stated)	inconclusive: 39.8 µM [inhibitor, partial curve]
O=c1[nH]n2c(=O)c3c([nH]c2c1N=Nc1cccc(Cl)c1)CCCC3	inconclusive: 79.4 µM [inhibitor, single point]
Cc1cc(C)n(-c2nc3c(c(=O)[nH]c(=O)n3C)n2CC(C)C)n1	inconclusive: 100 µM [inhibitor, single point]
CCN(CC)S(=O)(=O)c1ccc(C)c(NC(=O)c2cc(C)oc2C)c1	inconclusive: 89.1 µM [inhibitor, single point]
CCC(=O)NC(C)c1cc(Cl)c2ccccc2c1O (configuration not stated)	inactive
O=C(CSc1nccn1-c1ccc(F)cc1)NCc1ccc2c(c1)OCO2	inconclusive: 44.7 µM [inhibitor, partial curve]
OCCn1c(-c2ccc3c(c2)OCO3)csc1=Nc1ccccc1	active: 39.8 µM
O=C(N/N=C/c1ccccn1)c1cccnc1	active: 28.2 µM
COc1ccc(NCc2nnc(SCC(=O)c3ccc(C)cc3)o2)cc1	inconclusive: 44.7 µM [inhibitor, partial curve]
Cc1cc(/C=C2/NC(=O)N(Cc3ccccc3F)C2=O)c(C)n1C	inconclusive: 79.4 µM [inhibitor, single point]
O=C(COc1ccc(Oc2ccccc2)cc1)NCc1cn2ccccc2n1	inconclusive: 70.8 µM [inhibitor, single point]
O=C(CN1CCN(c2ccccc2F)CC1)NC(=O)NCc1ccco1	inconclusive: 56.2 µM [inhibitor, partial curve]
COc1cc(O)c(C(CC(=O)N2CCN(c3ccccc3)CC2)c2ccc(N(C)C)cc2)c(OC)c1 (configuration not stated)	active: 25.1 µM
CCNc1nc(NCC)nc(N/N=C/c2ccccc2)n1	inconclusive: 70.8 µM [inhibitor, partial curve]
